Where “and” joins values, the source holds several entries; their conditions need not be identical. Identical values can stand only once. The inconclusive results got no clear call from the source; some entries with a clear call stand among them for comparison. A potency beside an inconclusive call is a rough fit, not a confirmed value. The source holds several records for some structures; these can differ, active in one and inactive in another. Calls of active or inactive are those of the source. Unless noted, calls come from the whole dose curve; as a rule, active = well fitted curve in the direction sought with a large enough effect in the repeat runs; inconclusive = weak or mixed curves; inactive = no such curve, though single readings can be large; an effect the other way counts as inactive or inconclusive.
Legend:
[1] = qHTS assay to identify small molecule agonists of the sonic hedgehog signaling (Shh) pathway - cell viability counter screen (AID 1259366); details: NIH/3T3 Gli1-Luc viability, CellTiter-Fluor, 24 h; series mostly up to 92.4 µM; note: nearly all actives have a fitted effect of over 50% in size
How it was run: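 Cytotoxicity counter screen run in the same wells as the Shh reporter assay. NIH/3T3 cells carrying a Gli1 response element–driven luciferase were treated with DMSO-dissolved compounds for 24hr, and live-cell protease activity was measured with CellTiter-Fluor.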

[2] = qHTS assay to identify small molecule antagonists of the sonic hedgehog signaling (Shh) pathway - cell viability counter screen (AID 1259367); details: NIH/3T3 Gli1-Luc viability, CellTiter-Fluor, 24 h; series mostly up to 92.4 µM; note: nearly all actives have a fitted effect of over 55% in size
How it was run: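 Cells: 3T3 Gli1-Luc, 2,000/well, 4 hr pre-incubation. Compounds in DMSO, then conditioned medium. Incubation 24 hr, 37C, 5% CO2. CellTiter-Fluor at 23 hr, 1 hr, fluorescence.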

[3] = qHTS assay to identify small molecule antagonists of the sonic hedgehog signaling (Shh) pathway (AID 1259369; calls by dose curve; note: nearly all actives have a fitted effect of over 45% in size); details: NIH/3T3 Gli1-Luc reporter, Shh antagonist, luminescence 24 h; series mostly up to 92.4 µM
How it was run: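 Inhibition of Shh signalling is measured as reduced Gli1-response-element firefly luciferase output in an NIH/3T3-derived stable reporter clone stimulated with conditioned medium for 24hr.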

[4] = molecular target: Estrogen receptor beta (Homo sapiens) (UniProt Q92731); assay: qHTS assay to identify small molecule agonists of the estrogen receptor beta (ER-beta) signaling pathway (AID 1259377; active = well fitted activation curve with a large enough effect in the signal ratio in the repeat runs, not every such curve was filed as active; inconclusive = weak or mixed curves, or effect the other way; the % refers to the signal ratio; for activation: % is set by controls: 0 for no effect and ±100 for the full control effect); details: ER-beta-UAS-bla HEK293T, beta-lactamase FRET ratio, 16 h; activation: at 92.4 µM (top of the series) unless noted
How it was run: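 HEK293T ER-beta-UAS-bla; 2% charcoal-stripped FBS; cells pre-incubated 6 hr, compound 16 hr, 37C/5% CO2; LiveBLAzer B/G FRET substrate 2 h RT; fluorescence intensity read.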

[5] = molecular target: Estrogen receptor beta (Homo sapiens) (UniProt Q92731); assay: qHTS assay to identify small molecule antagonists of the estrogen receptor beta (ER-beta) signaling pathway (AID 1259378; active = well fitted inhibition curve with a large enough effect in the signal ratio in the repeat runs, not every such curve was filed as active; inconclusive = weak or mixed curves, or effect the other way; inactive = no such curve, though single readings can be large or run the other way; the % refers to the signal ratio); details: ER-beta-UAS-bla HEK293T, beta-lactamase FRET ratio, 16 h; activity, negative = inhibition: at 92.4 µM (top of the series) unless noted
How it was run: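 Antagonist mode: compounds added to beta-lactamase reporter HEK293T ER-beta-UAS cells stimulated with E2 (1nM final), 16 hr at 37C. LiveBLAzer B/G FRET substrate, 2 hours room temperature, fluorescence read-out.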

[6] = qHTS assay to identify small molecule agonists of the estrogen receptor beta (ER-beta) signaling pathway - cell viability counter screen (AID 1259380); details: ER-beta-bla HEK293T viability, CellTiter-Glo luminescence, 16 h; series mostly up to 92.4 µM; note: nearly all actives have a fitted effect of over 30% in size
How it was run: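 Same-well viability counter screen. Cells: ER-beta-UAS-bla HEK293T, plated 6 hr before compound, in 2% charcoal-stripped FBS. Compound exposure 16 hr, 37C; viability by CellTiter-Glo luminescence after 30 min at room temperature.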

[7] = molecular target: Thyrotropin receptor (Homo sapiens) (UniProt P16473); assay: qHTS assay to identify small molecule antagonists of the thyroid stimulating hormone receptor (TSHR) signaling pathway (AID 1259385; calls by dose curve; note: nearly all actives have a fitted effect of over 20% in size); details: TSHR-HEK293 cAMP HTRF, TSH-stimulated antagonist mode; activity change, negative = inhibition: at 92.4 µM (top of the series) unless noted
How it was run: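 Antagonist mode: compound-treated TSHR-expressing HEK293 cells were stimulated with 1.5 ng/mL TSH (final) in presence of Ro20-1724 for 30 min at RT. HTRF cAMP detection after 1 h; each compound tested at 15 concentrations, triplicate.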

[8] = qHTS assay to identify small molecule agonists of the estrogen receptor alpha (ER-alpha) signaling pathway in the presence of an antagonist - cell viability counter screen (AID 1259386); details: VM7Luc4E2 viability, CellTiter-Fluor fluorescence, 22 h; series mostly up to 92.4 µM;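 note: cells exposed to compounds for 22 h at 37 °C before the viability read; nearly all actives have a fitted effect of over 30% in size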
How it was run: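 Cells are starved of estrogens for 5 days in charcoal-stripped serum, seeded for 24hr and co-treated with ICI-182,780 (10.0nM final) and test compounds. After 22hr at 37C, viability is read as CellTiter-Fluor fluorescence.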

[9] = molecular target: Progesterone receptor (Homo sapiens) (UniProt P06401); assay: qHTS assay to identify small molecule agonists of the progesterone receptor (PR) signaling pathway (AID 1346784; calls by dose curve; note: nearly all actives have a fitted effect of over 30% in size); details: PR-UAS-bla HEK293T, beta-lactamase FRET ratio, 16 h; activation: at 92.4 µM (top of the series) unless noted
How it was run: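 Beta-lactamase reporter read-out: after 16 hr compound treatment at 37C and a further 2 hr at room temperature with LiveBLAzer B/G FRET substrate, fluorescence was measured in PR-UAS-bla HEK 293T cells grown in 2% charcoal-stripped serum.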

[10] = molecular target: Progesterone receptor (Homo sapiens) (UniProt P06401); assay: qHTS assay to identify small molecule antagonists of the progesterone receptor (PR) signaling pathway (AID 1346795; active = well fitted inhibition curve with a large enough effect in the signal ratio in the repeat runs, not every such curve was filed as active; inconclusive = weak or mixed curves; the % refers to the signal ratio; for activity change, negative = inhibition: % is set by controls: 0 for no effect and ±100 for the full control effect); details: PR-UAS-bla HEK293T, beta-lactamase FRET ratio, 16 h; activity change, negative = inhibition: at 92.4 µM (top of the series) unless noted
How it was run: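 Read-out is fluorescence from the LiveBLAzer B/G FRET substrate, cleaved by a UAS-controlled beta-lactamase in PR-UAS-bla HEK293T cells after 16 hr exposure to compound plus 1 nM promegestone (final), followed by 2 hr at room temperature.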

[11] = qHTS assay to identify small molecule agonists of the progesterone receptor (PR) signaling pathway - cell viability counter screen (AID 1346799; calls by dose curve; note: nearly all actives have a fitted effect of over 45% in size); details: PR-UAS-bla HEK293T viability, CellTiter-Glo luminescence, 16 h; series mostly up to 92.4 µM
How it was run: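 Luminescence from CellTiter-Glo, added after the beta-lactamase FRET read in the same wells, gave cytotoxicity in PR-UAS-bla HEK293T cells treated with compounds for 16 hr at 37C.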

[12] = qHTS assay to identify small molecule HDAC inhibitors (AID 1259364); details: HCT-116 HDAC-Glo I/II luminescence, 2 h; series mostly up to 92.4 µM; note: nearly all actives have a fitted effect of over 45% in size
How it was run: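 Homogeneous cell-based luminescent assay of endogenous class I/II HDAC activity; HCT-116 cells, 2 h compound exposure, 30 min HDAC-Glo development at RT.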

[13] = qHTS assay to identify small molecule antagonists of the progesterone receptor (PR) signaling pathway - cell viability counter screen (AID 1346798); details: PR-UAS-bla HEK293T viability, CellTiter-Glo luminescence, 16 h; series mostly up to 92.4 µM; note: nearly all actives have a fitted effect of over 50% in size
How it was run: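 HEK293T PR-UAS-bla, 2% charcoal-stripped FBS; 4 hr pre-plate; cpd + R5020, 16 h 37C; LiveBLAzer read first; then CellTiter-Glo 30 min RT, luminescence.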

[14] = qHTS assay to identify small molecule HDAC inhibitors - cell viability counter screen (AID 1259365); details: HCT-116 viability, CellTiter-Glo ATP luminescence, 2 h; series mostly up to 92.4 µM; note: nearly all actives have a fitted effect of over 50% in size
How it was run: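 Luminescence from CellTiter-Glo, developed 30min at room temperature, reports viability of wild-type HCT-116 cells treated 2hr with compounds at 37 C and 5% CO2 after overnight plating.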

[15] = qHTS assay to identify small molecule antagonists of the estrogen receptor beta (ER-beta) signaling pathway - cell viability counter screen (AID 1259382); details: ER-beta-UAS-bla HEK293T viability, CellTiter-Glo luminescence, 16 h; series mostly up to 92.4 µM; note: nearly all actives have a fitted effect of over 55% in size
How it was run: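 Following a 6 hr plating period, HEK293T cells carrying a UAS-driven beta-lactamase reporter under ER-beta control received compounds and 1nM E2 (final). After 16 hr at 37C and 2 hr substrate loading, CellTiter-Glo luminescence indicated viability.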

[16] = qHTS assay to identify small molecule agonists of the androgen receptor (AR) signaling pathway in the presence of an antagonist - cell viability counter screen (AID 1259379); details: MDA-kb2 viability, CellTiter-Fluor, 16 h; series mostly up to 92.4 µM; note: nearly all actives have a fitted effect of over 25% in size
How it was run: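 Fluorescence from CellTiter-Fluor, added after 15 hr and read 1 hr later, gave cell viability. Cells were MDA-kb2 exposed to compounds (15 concentrations) in the presence of 3.0uM nilutamide at 37C, 0% CO2.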

[17] = qHTS assay to identify small molecule antagonists of the TGF-beta/Smad signaling pathway - cell viability counter screen (AID 1346824); details: SBE-bla HEK293T viability, CellTiter-Glo luminescence; series mostly up to 76.8 µM; note: nearly all actives have a fitted effect of over 50% in size
How it was run: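 Cytotoxicity counter-screen run in the same wells as the beta-lactamase Smad reporter read: CellTiter-Glo luminescence after 30 min at room temperature. HEK 293T SBE-bla cells had 5 hr compound exposure at 37 C with TGF-beta1 (0.25 ng/mL stock).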
Potency is the fitted concentration of half-maximal effect; tags give direction and shape of the fitted curve or compound fluorescence and quenching.

Chain of UniProt P06401 (P06401 whole entry, looked up): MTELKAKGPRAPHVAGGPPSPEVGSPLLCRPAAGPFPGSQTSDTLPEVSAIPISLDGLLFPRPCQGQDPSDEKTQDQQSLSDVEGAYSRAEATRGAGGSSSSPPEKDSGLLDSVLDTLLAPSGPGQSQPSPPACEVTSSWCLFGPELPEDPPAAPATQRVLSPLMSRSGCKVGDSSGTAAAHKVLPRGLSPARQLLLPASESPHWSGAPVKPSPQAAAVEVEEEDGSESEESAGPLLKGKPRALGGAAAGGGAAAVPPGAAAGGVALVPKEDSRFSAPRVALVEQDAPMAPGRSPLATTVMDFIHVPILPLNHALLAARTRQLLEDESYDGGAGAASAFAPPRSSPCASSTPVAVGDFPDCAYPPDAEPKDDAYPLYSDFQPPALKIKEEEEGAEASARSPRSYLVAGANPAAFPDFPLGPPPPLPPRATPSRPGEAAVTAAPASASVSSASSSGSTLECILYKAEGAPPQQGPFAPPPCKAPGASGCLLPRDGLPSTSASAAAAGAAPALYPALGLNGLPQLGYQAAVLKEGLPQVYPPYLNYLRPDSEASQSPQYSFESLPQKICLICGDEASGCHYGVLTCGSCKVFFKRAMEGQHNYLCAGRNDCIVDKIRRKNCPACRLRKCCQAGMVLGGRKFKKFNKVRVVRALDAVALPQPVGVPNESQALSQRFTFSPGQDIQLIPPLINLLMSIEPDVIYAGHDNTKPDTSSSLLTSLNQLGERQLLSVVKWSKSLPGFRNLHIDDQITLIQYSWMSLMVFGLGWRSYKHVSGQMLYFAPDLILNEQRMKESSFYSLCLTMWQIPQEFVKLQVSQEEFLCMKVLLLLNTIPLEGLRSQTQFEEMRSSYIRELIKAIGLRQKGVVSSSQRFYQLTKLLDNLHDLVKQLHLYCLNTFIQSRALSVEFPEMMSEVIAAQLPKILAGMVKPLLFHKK
Chain of UniProt P16473 (P16473 whole entry, looked up): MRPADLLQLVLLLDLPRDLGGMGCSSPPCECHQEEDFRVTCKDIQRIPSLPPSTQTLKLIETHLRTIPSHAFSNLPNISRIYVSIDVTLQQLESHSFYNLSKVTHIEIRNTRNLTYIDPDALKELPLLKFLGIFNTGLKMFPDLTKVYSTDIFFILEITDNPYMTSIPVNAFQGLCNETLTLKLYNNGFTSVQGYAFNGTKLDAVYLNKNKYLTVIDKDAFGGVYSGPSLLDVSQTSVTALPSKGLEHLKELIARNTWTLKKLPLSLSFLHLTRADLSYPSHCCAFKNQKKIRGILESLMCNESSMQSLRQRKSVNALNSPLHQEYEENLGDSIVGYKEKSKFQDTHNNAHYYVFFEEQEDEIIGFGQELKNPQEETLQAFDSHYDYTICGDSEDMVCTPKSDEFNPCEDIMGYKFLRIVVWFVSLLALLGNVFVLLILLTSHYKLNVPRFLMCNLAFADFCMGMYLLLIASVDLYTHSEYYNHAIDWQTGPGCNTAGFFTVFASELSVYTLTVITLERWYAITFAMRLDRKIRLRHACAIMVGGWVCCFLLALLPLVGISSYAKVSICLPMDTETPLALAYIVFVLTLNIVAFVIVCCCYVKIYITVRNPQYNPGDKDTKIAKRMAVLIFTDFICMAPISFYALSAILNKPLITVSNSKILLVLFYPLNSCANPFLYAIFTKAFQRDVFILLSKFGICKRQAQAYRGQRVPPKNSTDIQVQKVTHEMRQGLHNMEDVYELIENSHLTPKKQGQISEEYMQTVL
Chain of UniProt Q92731 (Q92731 whole entry, looked up): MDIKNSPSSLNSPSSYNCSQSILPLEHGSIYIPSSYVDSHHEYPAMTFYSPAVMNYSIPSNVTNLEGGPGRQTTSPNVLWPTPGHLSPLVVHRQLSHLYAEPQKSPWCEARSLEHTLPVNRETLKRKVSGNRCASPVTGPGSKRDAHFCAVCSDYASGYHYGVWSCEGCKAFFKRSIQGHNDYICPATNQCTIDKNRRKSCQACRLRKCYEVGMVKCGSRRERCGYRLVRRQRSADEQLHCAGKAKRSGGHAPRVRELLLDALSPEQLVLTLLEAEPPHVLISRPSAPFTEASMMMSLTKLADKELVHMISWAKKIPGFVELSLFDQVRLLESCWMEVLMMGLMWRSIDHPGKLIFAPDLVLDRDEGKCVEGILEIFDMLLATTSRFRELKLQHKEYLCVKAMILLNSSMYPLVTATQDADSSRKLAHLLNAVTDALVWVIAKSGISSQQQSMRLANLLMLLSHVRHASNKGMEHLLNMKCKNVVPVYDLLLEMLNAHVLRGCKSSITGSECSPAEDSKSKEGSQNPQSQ

O=C1OC(=O)C2C1C1(Cl)C(Cl)=C(Cl)C2(Cl)C1(Cl)Cl (configuration not stated)
Potency [1]: inconclusive: 24.6 µM [rising, partial curve, poor fit]

C=CC[C@]1(O)CC[C@H]2[C@@H]3CCC4=CC(=O)CCC4=C3C=C[C@@]21C
Potency [1]: inconclusive: 9.44 µM [rising, partial curve] | Potency [2]: inconclusive: 18.8 µM [cytotoxic, single point] | Potency [3]: active: 13.3 µM | Potency [4]: inactive | Potency [5]: inconclusive: 23.7 µM [partial curve] | Potency [6]: inactive | Potency [7]: inconclusive: 29.8 µM [falling, single point] | Potency [8]: inconclusive: 13.3 µM [cytotoxic, partial curve] | Potency [9]: inconclusive: 0.0024 µM [activator, full curve] | Potency [10]: inconclusive: 26.6 µM [falling, partial curve, poor fit] | Potency [11]: inconclusive: 29.8 µM [rising, partial curve, poor fit]

CCBr
Potency [1]: inactive

O=C(NC(=O)c1ccccc1Cl)Nc1ccc(OC(F)(F)F)cc1
Potency [12]: inconclusive: 34.4 µM [inhibitor, partial curve] | activity change, negative = inhibition [10]: inconclusive: -4.67% | Potency [13]: inconclusive: 77 µM [cytotoxic, single point] | Potency [11]: inconclusive: 30.6 µM [cytotoxic, partial curve]

CCN(CC)C(=O)Cl
Potency [1]: inactive

C=CCc1ccc(OC)cc1
Potency [14]: inactive | Potency [4]: inconclusive: 27.3 µM [activator, full curve] | Potency [10]: inactive

C[C@H]1CNCCc2ccc(Cl)cc21
Potency [14]: inactive | Potency [6]: inconclusive: 26.6 µM [cytotoxic, partial curve] | Potency [15]: inconclusive: 23.7 µM [cytotoxic, partial curve] | Potency [11]: inconclusive: 33.5 µM [cytotoxic, single point]

CCCC[n+]1ccc(C)cc1
Potency [14]: active: 60.8 µM | Potency [16]: inconclusive: 68.2 µM [cytotoxic, single point] | Potency [6]: inconclusive: 2.77 µM [cytotoxic, single point] | Potency [15]: active: 60.8 µM | Potency [8]: inconclusive: 68.2 µM [cytotoxic, single point] and inconclusive: 13.7 µM [cytotoxic, full curve] and inconclusive: 1.53 µM [cytotoxic, partial curve] | Potency [11]: active: 60.8 µM and inconclusive: 612 nM [cytotoxic, single point] | Potency [17]: inconclusive: 55.1 µM [rising, partial curve, poor fit]

[O]=[Cr][O][Cr]=[O]
Potency [1]: inactive

CC[C@H](C)[C@H]1O[C@]2(C=C[C@@H]1C)C[C@@H]1C[C@@H](C/C=C(\C)[C@@H](O[C@H]3C[C@H](OC)[C@@H](O[C@H]4C[C@H](OC)[C@@H](NC)[C@H](C)O4)[C@H](C)O3)[C@@H](C)/C=C/C=C3\CO[C@@H]4[C@H](O)C(C)=C[C@@H](C(=O)O1)[C@]34O)O2
Potency [14]: active: 48.6 µM | Potency [1]: active: 12.2 µM | Potency [16]: active: 19.3 µM | Potency [7]: active: 27.3 µM | Potency [8]: active: 27.3 µM | Potency [9]: inconclusive: 13.7 µM [cytotoxic, full curve] | Potency [10]: inconclusive: 30.6 µM [falling, full curve] | Potency [13]: active: 24.3 µM | Potency [11]: active: 13.7 µM | Potency [17]: active: 17.4 µM

ClCc1ccccn1
Potency [14]: inactive | Potency [3]: inconclusive: 0.969 µM [inhibitor, single point] | Potency [9]: inconclusive: 68.6 µM [activator, partial curve, poor fit] | Potency [13]: inactive | Potency [11]: inactive

CCCCCCCCCCCCCC[P+](CCCCCC)(CCCCCC)CCCCCC (tested in a mixture with another compound)
Potency [14]: active: 68.6 µM | Potency [6]: active: 24.3 µM | Potency [15]: active: 27.3 µM | Potency [7]: inconclusive: 68.6 µM | Potency [8]: active: 17.2 µM | Potency [9]: inconclusive: 30.6 µM | Potency [10]: inconclusive: 48.6 µM | Potency [13]: active: 30.6 µM | Potency [11]: active: 27.3 µM

O=S(=O)(C(Cl)(Cl)Cl)C(Cl)(Cl)Cl
Potency [14]: inconclusive: 77 µM [cytotoxic, single point] | Potency [1]: active: 9.69 µM | Potency [2]: active: 54.5 µM | Potency [4]: inconclusive: 48.6 µM [rising, partial curve] | Potency [5]: inconclusive: 30.6 µM [partial curve] | Potency [15]: inconclusive: 24.3 µM [cytotoxic, partial curve] | Potency [7]: inconclusive: 61.1 µM | Potency [10]: inactive | Potency [13]: inactive | Potency [17]: inconclusive: 54.9 µM [cytotoxic]
